Reference: PubChem BioAssay (Tox21)
Values joined by “and” are separate entries in the source; they are usually repeats but may differ in a detail not shown here. Identical values can stand only once. The inconclusive results got no clear call from the source; some entries with a clear call stand among them for comparison. For part of these data: Potencies of inconclusive entries are doubtful fits and often do not repeat. Where a structure was tested more than once in an assay, its records may differ in their call. Active and inactive are the calls of the source. Unless noted, calls follow the shape of the dose curve; as a rule, active = well fitted curve in the direction sought with a large enough effect in the repeat runs; inconclusive = weak or mixed curves; inactive = no such curve, though single readings can be large; an effect the other way counts as inactive or inconclusive.

Legend:
[1] = target: Peroxisome proliferator-activated receptor gamma (Homo sapiens) (UniProt P37231); experiment: qHTS assay to identify small molecule antagonists of the peroxisome proliferator-activated receptor gamma (PPARg) signaling pathway (AID 743191; calls by dose curve; also: % is scaled to controls: 0 for no effect and ±100 for the full control effect; nearly all actives have a fitted effect of over 30% in size); details: HEK293H PPARg-UAS-bla, beta-lactamase ratio, antagonist, 17 h; ratio activity, negative = inhibition: at 62.6 µM (top of the series) unless noted
Outline: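 GeneBLAzer PPARg UAS-bla HEK293H cells carrying a UAS-driven beta-lactamase reporter were plated at 3000 cells/well, preincubated 5 h at 37C, then given compound for 17 h at 37C; LiveBLAzer B/G FRET substrate was read after 1 h at room temperature.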

[2] = qHTS assay for small molecule activators of the heat shock response signaling pathway (AID 743210; active = well fitted activation curve with a large enough effect in the signal ratio in the repeat runs, with a control signal flat, not every such curve was filed as active; inconclusive = weak or mixed curves; the % refers to the signal ratio; also: potency is read from the fitted curve at half-maximal effect); details: HeLa HSE-bla reporter, beta-lactamase ratio, 5 h; activation: at 62.6 µM (top of the series)
Outline: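 Activation of heat shock element-controlled beta-lactamase expression is measured in HeLa cells by LiveBLAzer FRET fluorescence, with compound exposure lasting 5 h at 37 C and substrate loading 2.5 h at room temperature.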

[3] = qHTS assay to identify small molecule antagonists of the peroxisome proliferator-activated receptor delta (PPARd) signaling pathway - cell viability counter screen (AID 743213); details: PPARd-bla HEK293H viability, CellTiter-Glo luminescence, 17 h; viability change, negative = cytotoxic: at 62 µM (top of the series) unless noted; also: potency is read from the fitted curve at half-maximal effect; nearly all actives have a fitted effect of over 50% in size
Outline: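 PPARd-bla HEK293H cells were treated with compounds plus agonist L165041 (300 nM final) for 17 h at 37 C. Viability was then read in the same wells by CellTiter-Glo luminescence after 30 min at room temperature.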

[4] = target: Peroxisome proliferator-activated receptor delta (Homo sapiens) (UniProt Q03181); experiment: qHTS assay to identify small molecule antagonists of the peroxisome proliferator-activated receptor delta (PPARd) signaling pathway (AID 743215; active = well fitted inhibition curve with a large enough effect in the signal ratio in the repeat runs, not every such curve was filed as active; inconclusive = weak or mixed curves, or effect the other way; inactive = no such curve, though single readings can be large or run the other way; the % refers to the signal ratio;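 also: cells stimulated with agonist L165041 at 300 nM final during compound exposure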; also: potency is read from the fitted curve at half-maximal effect; as to ratio activity, negative = inhibition: % is scaled to controls: 0 for no effect and ±100 for the full control effect); details: HEK293H PPARd-UAS-bla, beta-lactamase FRET ratio, antagonist, 17 h; ratio activity, negative = inhibition: at 62 µM (top of the series) unless noted
Outline: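 Plated HEK293H PPARd-bla cells rested 5 h at 37 C and 5% CO2. Compound, then agonist L165041 at 300 nM final, was added; 17 h at 37 C followed. Substrate loading, 2 h room temperature, fluorescence measured.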

[5] = qHTS assay to identify small molecule antagonists of the peroxisome proliferator-activated receptor gamma (PPARg) signaling pathway - cell viability counter screen (AID 743194); details: PPARg-bla HEK293H viability, CellTiter-Glo luminescence, 17 h, co-treated with 50 nM rosiglitazone; activity change, negative = cytotoxicity: at 62.6 µM (top of the series) unless noted; also: nearly all actives have a fitted effect of over 55% in size; also: potency is read from the fitted curve at half-maximal effect; as to activity change, negative = cytotoxicity: % is scaled to controls: 0 for no effect and ±100 for the full control effect
Outline: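 PPARg-UAS-bla HEK293H cells were plated, rested 5 h at 37 C, then treated with compounds plus rosiglitazone (50 nM final) for 17 h at 37 C; viability was then read by CellTiter-Glo luminescence after 30 min at room temperature.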

[6] = qHTS assay for small molecule agonists of the antioxidant response element (ARE) signaling pathway (AID 743202; active = well fitted activation curve with a large enough effect in the signal ratio in the repeat runs, not every such curve was filed as active; inconclusive = weak or mixed curves, or effect the other way; inactive = no such curve, though single readings can be large or run the other way; the % refers to the signal ratio; also: potency is read from the fitted curve at half-maximal effect; as to activation: % is scaled to controls: 0 for no effect and ±100 for the full control effect); details: HepG2 ARE-bla reporter, beta-lactamase FRET, 16 h; activation: at 73.3 µM (top of the series) unless noted
Outline: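 Steps: seed ARE-bla HepG2 cells (2,000/well); incubate 5 h at 37 C; add compounds by pin tool; incubate 16 h at 37 C; add FRET substrate; read fluorescence after 2 h at RT.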

[7] = qHTS assay for small molecule activators of the heat shock response signaling pathway - cell viability counter screen (AID 743209); details: HSE-bla HeLa viability, CellTiter-Glo luminescence, 5 h; activity change, negative = cytotoxicity: at 62.6 µM (top of the series) unless noted; also: nearly all actives have a fitted effect of over 50% in size; also: potency is read from the fitted curve at half-maximal effect
Outline: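 Viability of HSE-bla HeLa cells is measured with CellTiter-Glo in the wells already used for the reporter read. Compound exposure lasts 5 h at 37 C, and luminescence is read after 30 min at room temperature.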

[8] = qHTS assay to identify small molecule agonists of the peroxisome proliferator-activated receptor delta (PPARd) signaling pathway - cell viability counter screen (AID 743211); details: PPARd-bla HEK293H viability, CellTiter-Glo luminescence, 17 h; activity change, negative = cytotoxicity: at 62.6 µM (top of the series); also: potency is read from the fitted curve at half-maximal effect; nearly all actives have a fitted effect of over 55% in size
Outline: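 Counter screen for cytotoxicity run in parallel with the PPARd reporter screen. Beta-lactamase reporter HEK293H cells exposed to compounds 17 h; ATP-based CellTiter-Glo luminescence quantified viability.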

[9] = target: Peroxisome proliferator-activated receptor delta (Homo sapiens) (UniProt Q03181); experiment: qHTS assay to identify small molecule agonists of the peroxisome proliferator-activated receptor delta (PPARd) signaling pathway (AID 743212; calls by dose curve; also: potency is read from the fitted curve at half-maximal effect); details: HEK293H PPARd-UAS-bla, beta-lactamase FRET ratio, 17 h; activation: at 62.6 µM (top of the series) unless noted
Outline: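 Cells expressing a UAS-driven beta-lactamase reporter (PPARd-bla HEK293H) were given test compounds after a 5 h settle and kept at 37 C. Reporter activity was then measured as FRET fluorescence using LiveBLAzer B/G substrate.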

[10] = target: Bile acid receptor (Homo sapiens) (UniProt Q96RI1); experiment: qHTS assay to identify small molecule antagonists of the farnesoid-X-receptor (FXR) signaling pathway (AID 743217; active = well fitted inhibition curve with a large enough effect in the signal ratio in the repeat runs, not every such curve was filed as active; inconclusive = weak or mixed curves, or effect the other way; inactive = no such curve, though single readings can be large or run the other way; the % refers to the signal ratio; also: potency is read from the fitted curve at half-maximal effect); details: HEK293T FXR-UAS-bla, beta-lactamase ratio, CDCA-stimulated, 16 h; activity change, negative = inhibition: at 62.6 µM (top of the series) unless noted
Outline: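 Screen of the Tox21 10K library in quantitative HTS format using FXR-UAS-bla HEK 293T reporter cells. Agonist chenodeoxycholic acid, 50 uM final, added with compounds; 16 h incubation at 37 °C; beta-lactamase FRET fluorescence measured.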

[11] = target: Bile acid receptor (Homo sapiens) (UniProt Q96RI1); experiment: qHTS assay to identify small molecule agonists of the farnesoid-X-receptor (FXR) signaling pathway (AID 743220; active = well fitted activation curve with a large enough effect in the signal ratio in the repeat runs, not every such curve was filed as active; inconclusive = weak or mixed curves, or effect the other way; the % refers to the signal ratio; also: % is scaled to controls: 0 for no effect and ±100 for the full control effect); details: HEK293T FXR-UAS-bla, beta-lactamase FRET ratio, 16 h; activation: at 62.6 µM (top of the series) unless noted
Outline: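 FXR-UAS-bla HEK 293T cells carrying a UAS-driven beta-lactamase reporter were plated for 5 h at 37C/5% CO2, then exposed to DMSO-dissolved Tox21 10K compounds for 16 h at 37C. A LiveBLAzer B/G FRET substrate was loaded for 2 h at room temperature before fluorescence reading.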

[12] = target: Vitamin D3 receptor (Homo sapiens) (UniProt P11473); experiment: qHTS assay to identify small molecule agonists of the vitamin D receptor (VDR) signaling pathway (AID 743222; calls by dose curve; also: potency is read from the fitted curve at half-maximal effect); details: HEK293T VDR-UAS-bla, beta-lactamase FRET ratio, 16 h; activation: at 63.5 µM (top of the series) unless noted
Outline: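 Fluorescence from cleaved LiveBLAzer B/G FRET substrate served as readout. VDR-bla cells had been treated 16 h at 37C with test compounds in DMSO, following a 4 h settling period, and substrate was loaded for 2 h at RT.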

[13] = target: Vitamin D3 receptor (Homo sapiens) (UniProt P11473); experiment: qHTS assay to identify small molecule antagonists of the vitamin D receptor (VDR) signaling pathway (AID 743223; active = well fitted inhibition curve with a large enough effect in the signal ratio in the repeat runs, not every such curve was filed as active; inconclusive = weak or mixed curves, or effect the other way; inactive = no such curve, though single readings can be large or run the other way; the % refers to the signal ratio; also: potency is read from the fitted curve at half-maximal effect); details: VDR-UAS-bla HEK293T, beta-lactamase FRET ratio, 16 h; activity change, negative = inhibition: at 61 µM (top of the series) unless noted
Outline: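 Cells carrying a VDR-driven beta-lactamase reporter (VDR-bla) were co-treated with compound and 3 nM final 1alpha,25-dihydroxyvitamin D3 for 16 h at 37C; reporter activity was measured as FRET substrate fluorescence after 2 h at room temperature.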

[14] = qHTS assay to identify small molecule antagonists of the farnesoid-X-receptor (FXR) signaling pathway - cell viability counter screen (AID 743221; active = well fitted cell-killing curve with a large enough effect in the repeat runs, not every such curve was filed as active; inconclusive = weak or mixed curves, or effect the other way; inactive = no such curve, though single readings can be large or run the other way; also: potency is read from the fitted curve at half-maximal effect; nearly all actives have a fitted effect of over 50% in size); details: FXR-bla HEK293T viability, CellTiter-Glo luminescence, 16 h; activity change, negative = cytotoxicity: at 62.6 µM (top of the series)
Outline: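 Multiplexed counter screen: viability of FXR-bla HEK 293T cells under agonist stimulation by chenodeoxycholic acid (50 uM, final) and test compound for 16 h at 37 C, measured by CellTiter-Glo luminescence in the reporter wells.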

[15] = qHTS assay to identify small molecule agonists of the vitamin D receptor (VDR) signaling pathway - cell viability counter screen (AID 743224); details: VDR-bla HEK293T viability, CellTiter-Glo luminescence, 16 h; activity change, negative = cytotoxicity: at 62.6 µM (top of the series) unless noted; also: potency is read from the fitted curve at half-maximal effect; nearly all actives have a fitted effect of over 50% in size
Outline: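 Compounds were pin-transferred onto VDR-bla cells plated 4 h earlier; following 16 h incubation at 37C, cell viability was quantified by CellTiter-Glo luminescence after 30 min at room temperature.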

[16] = qHTS assay to identify small molecule antagonists of the vitamin D receptor (VDR) signaling pathway - cell viability counter screen (AID 743225); details: VDR-bla HEK293T viability, CellTiter-Glo luminescence, 16 h; viability change, negative = cytotoxic: at 61 µM (top of the series) unless noted
Outline: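 HEK293T VDR-bla; cpd + 1a,25-(OH)2D3 3 nM final, 16 h 37C/5% CO2; B/G FRET substrate 2 h RT; then CellTiter-Glo 30 min RT, luminescence.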

[17] = qHTS assay to identify small molecule agonists of the farnesoid-X-receptor (FXR) signaling pathway - cell viability counter screen (AID 743218); details: FXR-bla HEK293T viability, CellTiter-Glo luminescence, 16 h; viability change, negative = cytotoxic: at 62.6 µM (top of the series) unless noted; also: potency is read from the fitted curve at half-maximal effect; nearly all actives have a fitted effect of over 45% in size
Outline: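 Viability of FXR-bla HEK 293T cells is measured by ATP-based CellTiter-Glo luminescence following 16 h compound treatment at 37 C and a prior 2 h room-temperature beta-lactamase substrate step.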

[18] = qHTS assay for small molecule agonists of the antioxidant response element (ARE) signaling pathway - cell viability counter screen (AID 743203; calls by dose curve; also: potency is read from the fitted curve at half-maximal effect; nearly all actives have a fitted effect of over 55% in size); details: ARE-bla HepG2 viability, CellTiter-Glo luminescence, 16 h; viability change, negative = cytotoxic: at 73.3 µM (top of the series)
Outline: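 Viability counter screen: stably transfected ARE-bla HepG2 line, 16 hrs compound exposure at 37C/5% CO2, ATP-based CellTiter-Glo luminescence measured in the reporter wells.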
Tags tell the direction and shape of the fitted curve or compound fluorescence and quenching.

UniProt Q03181, sequence (Q03181 whole entry, looked up): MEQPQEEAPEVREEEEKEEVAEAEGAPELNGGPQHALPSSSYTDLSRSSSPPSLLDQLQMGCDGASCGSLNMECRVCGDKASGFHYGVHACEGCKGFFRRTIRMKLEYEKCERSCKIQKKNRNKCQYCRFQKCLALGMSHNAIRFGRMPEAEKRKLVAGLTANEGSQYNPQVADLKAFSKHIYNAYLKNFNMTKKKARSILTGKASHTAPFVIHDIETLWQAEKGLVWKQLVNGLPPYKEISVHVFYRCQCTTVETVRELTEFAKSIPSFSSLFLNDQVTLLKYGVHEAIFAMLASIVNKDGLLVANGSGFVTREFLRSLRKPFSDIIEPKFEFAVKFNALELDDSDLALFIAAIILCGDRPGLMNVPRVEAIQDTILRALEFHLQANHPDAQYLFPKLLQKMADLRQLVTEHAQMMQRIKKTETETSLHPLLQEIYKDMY
UniProt P11473, sequence (P11473 whole entry, looked up): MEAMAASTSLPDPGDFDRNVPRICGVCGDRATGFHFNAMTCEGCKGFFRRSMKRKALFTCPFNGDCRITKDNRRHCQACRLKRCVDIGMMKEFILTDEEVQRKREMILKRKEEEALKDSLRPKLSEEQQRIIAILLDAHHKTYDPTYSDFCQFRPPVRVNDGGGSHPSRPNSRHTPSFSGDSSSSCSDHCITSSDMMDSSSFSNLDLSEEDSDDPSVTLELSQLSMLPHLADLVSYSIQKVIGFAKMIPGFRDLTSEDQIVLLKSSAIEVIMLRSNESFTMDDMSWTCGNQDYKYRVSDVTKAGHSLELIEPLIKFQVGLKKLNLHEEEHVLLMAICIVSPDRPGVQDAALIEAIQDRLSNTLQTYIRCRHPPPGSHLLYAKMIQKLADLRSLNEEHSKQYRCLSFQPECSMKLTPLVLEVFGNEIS
UniProt P37231, sequence (P37231 whole entry, looked up): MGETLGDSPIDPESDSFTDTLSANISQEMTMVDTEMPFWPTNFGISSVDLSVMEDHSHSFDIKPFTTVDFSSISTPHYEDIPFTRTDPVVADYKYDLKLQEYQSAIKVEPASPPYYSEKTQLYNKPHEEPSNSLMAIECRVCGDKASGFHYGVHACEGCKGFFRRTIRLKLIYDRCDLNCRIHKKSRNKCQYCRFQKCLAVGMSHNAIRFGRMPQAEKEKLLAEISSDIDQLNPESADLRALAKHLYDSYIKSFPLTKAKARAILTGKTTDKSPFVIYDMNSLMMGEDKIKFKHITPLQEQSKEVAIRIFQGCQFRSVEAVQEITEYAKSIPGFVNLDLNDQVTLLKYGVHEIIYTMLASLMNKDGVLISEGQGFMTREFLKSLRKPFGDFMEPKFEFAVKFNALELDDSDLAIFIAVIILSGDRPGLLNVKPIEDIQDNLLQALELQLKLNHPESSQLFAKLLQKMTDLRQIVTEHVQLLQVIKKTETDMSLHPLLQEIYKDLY
UniProt Q96RI1, sequence (Q96RI1 whole entry, looked up): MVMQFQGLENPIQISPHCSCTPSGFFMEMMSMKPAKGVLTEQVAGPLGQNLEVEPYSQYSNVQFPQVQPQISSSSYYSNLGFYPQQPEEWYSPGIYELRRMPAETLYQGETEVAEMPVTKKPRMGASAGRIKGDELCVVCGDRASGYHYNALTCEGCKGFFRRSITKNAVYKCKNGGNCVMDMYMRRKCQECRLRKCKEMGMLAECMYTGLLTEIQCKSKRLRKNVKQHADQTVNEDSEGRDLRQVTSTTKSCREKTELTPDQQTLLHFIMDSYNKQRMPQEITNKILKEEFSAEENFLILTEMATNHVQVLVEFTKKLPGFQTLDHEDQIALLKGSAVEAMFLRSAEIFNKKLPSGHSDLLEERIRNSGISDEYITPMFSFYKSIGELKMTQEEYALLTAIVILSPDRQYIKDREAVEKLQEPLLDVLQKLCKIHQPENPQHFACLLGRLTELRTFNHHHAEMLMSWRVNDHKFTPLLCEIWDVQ

Cn1cc(C(=O)[C@@H]2CCc3nc[nH]c3C2)c2ccccc21
ratio activity, negative = inhibition [1]: inconclusive: -5.29%
Potency [2]: inconclusive: 28.2 µM
Potency [3]: inconclusive: 29.8 µM [cytotoxic, single point]
ratio activity, negative = inhibition [4]: inconclusive: -30.7%

CC(C)OC(=O)C(C)(C)Oc1ccc(C(=O)c2ccc(Cl)cc2)cc1
Potency [5]: inactive
activation [6]: inconclusive: 50.9% and inconclusive: 20.7%
Potency [7]: inconclusive: 61.6 µM [cytotoxic, partial curve, poor fit]
Potency [2]: inconclusive: 58.2 µM
Potency [8]: active: 54.9 µM and inconclusive: 2.66 µM [cytotoxic, partial curve, poor fit]
Potency [9]: inconclusive: 54.9 µM
Potency [3]: active: 49 µM
Potency [4]: inconclusive: 49 µM [partial curve]
ratio activity, negative = inhibition [4]: inconclusive: -23%
Potency [10]: inconclusive: 49 µM [inhibitor, partial curve]
activation [11]: inconclusive: 4.55%
Potency [12]: inconclusive: 19.5 µM [rising, partial curve]
Potency [13]: inactive

CC/C(=C(\c1ccccc1)c1ccc(OCCN(C)C)cc1)c1ccccc1
Potency [5]: inconclusive: 22 µM [cytotoxic, partial curve, poor fit]
Potency [7]: active: 43.6 µM [middle of 4 runs]
Potency [2]: inconclusive: 52.9 µM [middle of 4 runs]
Potency [8]: inconclusive: 22 µM [cytotoxic]
Potency [14]: inconclusive: 54.9 µM [middle of 4 runs]
Potency [15]: inconclusive: 19.6 µM [cytotoxic, partial curve, poor fit]
Potency [16]: inconclusive: 54.9 µM [cytotoxic, single point] and active: 15.6 µM and active: 21.3 µM

Nc1ccc(Nc2ccccc2)cc1
ratio activity, negative = inhibition [1]: inconclusive: -11.2% and inconclusive: -11.6%
Potency [2]: inconclusive: 38.5 µM and inconclusive: 58.2 µM
Potency [3]: inconclusive: 61.7 µM [cytotoxic, single point]
Potency [17]: inconclusive: 21.9 nM [rising, partial curve, poor fit]
Potency [16]: inconclusive: 3.5 nM [rising, full curve, poor fit]

c1ccc(OCCOc2ccccc2)cc1
ratio activity, negative = inhibition [1]: inconclusive: 22.7%
Potency [3]: inconclusive: 0.195 µM [cytotoxic, single point]
Potency [4]: inactive

On1ccccc1=S
Potency [5]: active: 24.3 µM
Potency [6]: active: 15.2 µM
Potency [2]: inconclusive: 0.153 µM
Potency [8]: active: 0.385 µM
Potency [3]: active: 0.685 µM
Potency [17]: active: 385 nM
Potency [14]: inconclusive: 0.967 µM [falling, full curve]
Potency [12]: inconclusive: 0.432 µM [rising, partial curve]
Potency [13]: inconclusive: 43.2 µM [rising, partial curve]

CCCCC(CC)COC(=O)c1ccc(O)cc1 (centres undefined)
Potency [5]: active: 48.8 µM and inconclusive: 61.7 µM [cytotoxic, single point]
Potency [6]: inconclusive: 60.9 µM [falling, single point]
activation [6]: inconclusive: -1.05%
Potency [18]: inconclusive: 68.3 µM [cytotoxic]
Potency [7]: active: 24.5 µM and inconclusive: 54.9 µM [cytotoxic, single point]
Potency [8]: active: 38.8 µM and inconclusive: 54.9 µM [cytotoxic, single point]
Potency [9]: inactive
Potency [3]: active: 34.5 µM and active: 38.9 µM
Potency [4]: inconclusive: 54.7 µM [cytotoxic, single point]
ratio activity, negative = inhibition [4]: inconclusive: -24.5%
Potency [10]: inconclusive: 54.7 µM [single point] and inconclusive: 54.9 µM [inhibitor, single point]
Potency [14]: inconclusive: 61.7 µM [falling, single point]
Potency [13]: inconclusive: 0.194 µM [inhibitor, single point]
activity change, negative = inhibition [13]: inconclusive: -42.7%
Potency [15]: active: 21.8 µM and active: 49 µM
Potency [16]: active: 15.4 µM and active: 38.9 µM

CC(=O)Nc1ccc(C(=O)O)cc1
Potency [1]: inactive
Potency [17]: inconclusive: 972 nM [rising, full curve, poor fit]

CN(C)CCCN1c2ccccc2CCc2ccc(Cl)cc21
Potency [5]: inconclusive: 54.9 µM [cytotoxic] and inconclusive: 29.8 µM [cytotoxic, single point]
Potency [6]: inconclusive: 68.6 µM
Potency [7]: inconclusive: 49 µM [cytotoxic, partial curve, poor fit] and inactive
Potency [8]: active: 38.9 µM and active: 29.8 µM
Potency [3]: active: 21.9 µM and active: 13.3 µM
Potency [17]: active: 24.5 µM and inconclusive: 33.5 µM [cytotoxic, single point]
Potency [14]: inconclusive: 33.5 µM [falling, single point]
Potency [12]: inconclusive: 24.5 µM [rising, partial curve, poor fit]
Potency [13]: inconclusive: 54.9 µM [partial curve] and inconclusive: 26.8 µM
Potency [15]: inconclusive: 13.3 µM [cytotoxic, partial curve]
